# Measurements published in PubChem BioAssay AID624296 (National Center for Advancing Translational Sciences (NCATS), 2012).
# In all, about 350,000 compounds went through this assay and about 9,900 (2.8%) were called active. The inconclusive results got no clear call from the source; some entries with a clear call stand among them for comparison. The call rests on the fitted dose curve; in most records, active means well fitted activation curve with a large enough effect; inconclusive means small, poorly fitted or top-dose-only effect; inactive means no such curve, though single readings can be large or run the other way. No potency is given beside an inconclusive call; the fits are too rough.
# Test: A quantitative high throughput screen for small molecules that induce DNA re-replication in MCF 10a normal breast cells. Further: nearly all actives have a fitted effect of over 50% in size. On activity, positive = re-replication: % of control where 0% means no effect.
# Conditions: MCF 10A DNA re-replication, Hoechst nuclear intensity, 48 h; activity, positive = re-replication: at 46.1 µM (top of the series)
# Potency means the concentration at half of the fitted maximal effect; tags describe the fitted curve by direction and shape.
SMILES,"activity, positive = re-replication",Potency
CCCN(CC(=O)Nc1ccccc1OC)C(=O)c1ccc(S(=O)(=O)NCc2ccco2)cc1,inactive: 6.78%,
Cc1ccc(-n2ncc(C#N)c2/N=C/N2CCN(C)CC2)cc1,inactive: -2.6%,
COc1ccc(C(=O)Nc2cc3c4c(c2)C(C)C(=O)N4CCC3)cc1 (stereo not given),,"inconclusive [activator, partial curve, poor fit]"
CC(=O)N1CCc2cc(S(=O)(=O)CCC(=O)NCCc3ccc(Cl)cc3)ccc21,,"inconclusive [activator, partial curve, poor fit]"
O=C(O)c1ccc2c(c1)C(=O)N(c1ccc([N+](=O)[O-])cn1)C2=O,inactive: 0.0079%,
COC(=O)c1nn(-c2ccccc2)c2nnc(Cc3ccc(C)cc3)c(=O)n12,inactive: -11.1%,
CCOc1cc(/C=N/NC(=O)Cc2ccc(C(F)(F)F)cc2[N+](=O)[O-])c(Br)cc1OC,,"inconclusive [activator, full curve]"
CCCC[C@@H](CNC)NC[C@H](NCCCCC1CCCCC1)C(C)C,,"inconclusive [activator, single point]"
COc1ccc(CCNC(=O)c2cc(-c3ccccn3)nc3c(Cl)cccc23)cc1OC,,"inconclusive [activator, partial curve, poor fit]"
Cc1ccc2nc(SCc3cccc([N+](=O)[O-])c3)nc(C)c2c1,,"inconclusive [activator, single point]"
CCCNC(=O)c1ccc(N2CCC3(CC2)CC(c2ccccc2)=NO3)c(NC(=O)c2ccc(Br)cc2)c1,,"inconclusive [activator, full curve, poor fit]"
CCOC(=O)C1(Cc2ccc(OC)cc2)CCN(C(=O)c2ccoc2C)CC1,,"inconclusive [activator, single point]"
COc1ccc(C)cc1NC(=O)C(Sc1ccccc1)c1ccccc1 (stereo not given),,"inconclusive [activator, full curve, poor fit]"
O=C(CCSc1ccc(Cl)cc1)N1CCN(c2ccc(O)cc2)CC1,,"inconclusive [activator, full curve]"
O=C(O)c1cccc(N2C(=O)c3ccc(C(=O)c4cccc([N+](=O)[O-])c4)cc3C2=O)c1,inactive: 1.78%,
O=C1NC[C@@H](c2ccccc2)OC(=O)[C@@H](Cc2ccc(F)cc2)C/C=C\C[C@@H]1CC(=O)N(CCO)Cc1ccccc1,,"inconclusive [activator, single point]"
CS(=O)(=O)c1sc2nc(-c3ccccc3)cc(-c3ccccc3)c2c1N,,"inconclusive [activator, partial curve, poor fit]"
COc1ccccc1-c1nnc2n1N=C(C(C)(C)C)CS2,,"inconclusive [activator, partial curve, poor fit]"
CCC(C(=O)NC1CCCCCC1)n1nc(C)c2c(C)n(-c3ccccc3)nc2c1=O (stereo not given),inactive: 3.49%,
COc1ccc(-c2nc(CS(=O)CC(=O)NCc3ccc(Cl)cc3)c(C)o2)cc1OC (stereo not given),,"inconclusive [activator, single point]"

SMILES,"activity, positive = re-replication",Potency
COc1ccc(C(=O)N/N=C/c2c(C)nn(-c3ccccc3)c2OC)cc1,,"inconclusive [activator, single point]"
O=C(C[n+]1ccccc1)Nc1ccccc1C(=O)O,,"inconclusive [activator, partial curve, poor fit]"
CN(CC(=O)Nc1c(Cl)cccc1Cl)C(=O)c1ccc2ccccc2n1,inactive: 1.85%,
Cc1ccc(C)c(Cn2c(CN(C)Cc3ccccc3)nc3c2c(=O)n(C)c(=O)n3C)c1,,"inconclusive [activator, single point]"
O=C(Nc1nc2ccccc2[nH]1)c1cc2ccccc2o1,,"inconclusive [activator, single point]"
CC1Cc2ccccc2N1C(=O)C1CC(=O)N(c2ccccc2)C1 (stereo not given),inactive: 3.26%,
NCCCC(O)(P(=O)(O)O)P(=O)(O)O,inactive: -0.645%,
CCOc1ccc(CNC(=O)C2CCN(c3nnc(C)c4c(C)n(-c5ccc(C)cc5)nc34)CC2)cc1,,"inconclusive [activator, single point]"
CCOC(=O)CSC1=C(C#N)C(c2ccccc2)C(C(C)=O)=C(C)N1 (stereo not given),,"inconclusive [activator, single point]"
CC(C)C(=O)N=C1SC2CS(=O)(=O)CC2N1Cc1ccccc1 (stereo not given),,"inconclusive [activator, single point]"
CC(C)n1c(=S)[nH]c2ccccc21,,"inconclusive [activator, single point]"
COC(=O)c1cccc(NC(=S)Nc2ccc(Cl)c(Cl)c2)c1,,"inconclusive [activator, single point]"
O=C(Nc1ccc(Br)cc1F)c1ccc2nsnc2c1,,"inconclusive [activator, single point]"
COc1ccc(C(=O)CCN2CCc3cc(OC)c(OC)cc3C2)cc1,,active: 3.66 µM
O=C(NCC(c1ccco1)N1CCc2ccccc21)C(=O)Nc1ccccc1F (stereo not given),,"inconclusive [activator, single point]"
O=C(OCCc1cc2ccccc2c(=O)o1)c1ccco1,,"inconclusive [activator, partial curve, poor fit]"
O=C(NNC(=O)c1ccc(SCC2CCCO2)c([N+](=O)[O-])c1)c1ccc(Cl)c([N+](=O)[O-])c1 (stereo not given),,"inconclusive [activator, single point]"
O=C(N/N=C/c1cccnc1)c1cc(-c2ccc(Br)cc2)nc2ccccc12,,"inconclusive [activator, single point]"
CN=C1SC(CC(=O)Nc2ccccc2F)C(=O)N1/N=C/c1ccc(O)c(OC)c1 (stereo not given),,"inconclusive [activator, partial curve, poor fit]"
CCN(CC)C(=O)CSc1nc2ccccc2c(=O)n1CC1CCCCC1,,"inconclusive [activator, single point]"
